Assay results published in patent US20110065754A1 (priority 2009, published 2011).

Settings: in vitro, previously tested

Work on [N-]=[N+]=Nc1ccc(NCCCCCCN2C[C@H](O)[C@@H](O)[C@H](O)[C@H]2CO)c([N+](=O)[O-])c1 [NAP-DNJ, N—(N-{4′-azido-2′-nitrophenyl}-6-aminohexyl)deoxynojirimycin] yielded a CC50 of 125 to 250 µM.
